# Test results taken from PubChem BioAssay (NCATS).
# Inconclusive results, whose numbers are uncertain, are shown with a selection of clear calls. Potencies of inconclusive entries are left out as doubtful fits. “Side channel” marks fits to a control or component signal instead of the main read-out. The source made the active and inactive calls. Calls follow the shape of the dose curve; as a rule, active = well fitted inhibition curve with a large enough effect in the signal ratio, with a control signal flat (not every such curve was filed as active); inconclusive = small, poorly fitted or top-dose-only effect, or effect the other way, or a change in a side signal; inactive = flat fitted curve, though single readings scatter; the % refers to the signal ratio. Residues, ends and D or L forms follow the SMILES beside them. *: point of attachment. Cbz = O=C(OCc1ccccc1)*
# Experiment: qHTS Assay for Identification of Small Molecule Antagonists for NFkB Signaling Pathway (AID 895)
# Conditions: NFkB beta-lactamase reporter cells, FRET ratio 460/530, stimulated with 10 pM TNF alpha; activity change, negative = inhibition: at 38.3 µM (top of the series)
# Procedure: NIH Molecular Libraries Screening Centers Network [MLSCN]
# NIH Chemical Genomics Center [NCGC]
# The TNF alpha/NFkB signaling pathway was assayed in NFkB-bla cells (Invitrogen), a ME-180 cervical carcinoma line containing a stably integrated beta-lactamase reporter gene controlled by a NFkB response element. […] The assay was screened at the EC50 of TNF alpha activation to identify inhibitors of TNF alpha/NFkB signaling.
# NCGC Assay Protocol Summary:
# Cells were trypsinized, washed in assay medium (AM, OPTI MEM with 0.5% fetal bovine serum, 0.1 mM nonessential amino acids, 1 mM sodium pyruvate, 10mM HEPES pH 7.3, 100U/ml penicillin, and 100 ug/ml streptomycin) and plated at 1000 cells/5 uL/well into black clear-bottom 1536 well plates. After an overnight incubation at 37 C and 5% CO2, 23 nL of compound were delivered by a pin tool, 1 uL of TNF alpha (10 pM final concentration in AM) was added and plates were incubated at 37 C for 5 hrs. One uL of LiveBLAzerTM detector mix (Invitrogen) was added, the plates incubated at room temperature for 2 hrs, and fluorescence intensity at 460 and 530 nm emission was measured at 405 nm excitation by an Envision (Perkin Elmer).
# % is scaled to controls: 0 for no effect and ±100 for the full control effect; potency is read from the fitted curve at half-maximal effect; tags tell the direction and shape of the fitted curve or compound fluorescence and quenching.
SMILES,"activity change, negative = inhibition",Potency
NCCCCCCCCCCN,inconclusive: -5.13%,
C[N+](C)(CCCCCC[N+](C)(C)CCCN1C(=O)c2cccc3cccc(c23)C1=O)CCCN1C(=O)c2cccc3cccc(c23)C1=O,,"inconclusive [activator, full curve, poor fit]"
CC(C)(CO)Cc1cc(C(C)(C)C)c(O)c(C(C)(C)C)c1,,"inconclusive [inhibitor, partial curve, poor fit]"
CC1(C)CCC=[N+]1[O-],inconclusive: -22.7%,
Brc1c(NC2=NCCN2)ccc2nccnc12,inactive: -5.2%,
CC(C)(C)c1cc(/C=C(\C#N)C(N)=S)cc(C(C)(C)C)c1O,,"inconclusive [inhibitor, partial curve, poor fit]"
Cn1cnc2c(NCc3ccccc3)nc(NCCO)nc21,,"inconclusive [inhibitor, partial curve, poor fit]"
O=C1CCC(c2ccc(-n3ccnc3)cc2)=NN1,inconclusive: -14.4%,
NCCCCN,,"inconclusive [activator, single point]"
CCN1C(=O)C=CC1=O,inactive: -13.7%,
O=C(O)C1=CCNCC1,inactive: -13.8%,
CCCOC(=O)c1c(-c2ccccc2)nc(CC)c(C(=O)SCC)c1CCC,,"inconclusive [inhibitor, full curve, poor fit]"
O=[N+]([O-])c1cccc2cn[nH]c12,inactive: -19%,
CN1CCc2ccccc2Cc2[nH]c3ccccc3c2CC1,inconclusive: -11.3%,
Cc1cc(NC(=O)Nc2ccc3c(ccn3C)c2)sn1,inactive: -21.3%,
Ic1ccc(N2CCN(Cc3c[nH]c4ncccc34)CC2)cc1,,"inconclusive [inhibitor, partial curve, poor fit]"
c1ccc2c(c1)CC(N1CCN(c3cccc4c3OCCO4)CC1)C2,inconclusive: -31.8%,
N=C(N)SCCc1ccc(CCSC(=N)N)cc1,inactive: -12.2%,
O=S(=O)(c1cccc2c(I)cccc12)N1CCCNCC1,,"inconclusive [inhibitor, full curve, poor fit]"
Nc1ccc(S(=O)(=O)Nc2ccnn2-c2ccccc2)cc1,,active: 7.08 µM

SMILES,"activity change, negative = inhibition",Potency
CCCN(CC1CC1)c1nc(C)nc(Nc2c(Cl)cc(Cl)cc2Cl)c1Cl,,"inconclusive [inhibitor, single point]"
CC(=O)C(C)=O,inactive: -16.1%,
Nc1ccc(-c2nc3ccc(-c4nc5ccc(N)cc5[nH]4)cc3[nH]2)cc1,,active: 1.12 µM
CC(C)[C@H](NC(=O)OCc1ccccc1)C(=O)N[C@H](C=O)Cc1ccccc1 (Cbz-Val-Phe-aldehyde),,"inconclusive [inhibitor, partial curve, poor fit]"
COc1ccccc1CNCCCCCCNCCCCCCCCNCCCCCCNCc1ccccc1OC,inactive: -12.6%,
C1CCc2nnnn2CC1,inconclusive: 34.4%,
Oc1ccc(Cn2cc[nH]c2=S)cc1,,"inconclusive [activator, partial curve, poor fit]"
Nc1ncnc2c1c(-c1ccc(Oc3ccccc3)cc1)cn2C1CCCC1,,"inconclusive [cytotoxic, side channel, single point]"
CN=C(N)NCCC[C@H](N)C(=O)O,inactive: 4.4%,
CCCn1c(=O)c2[nH]c(-c3ccc(S(=O)(=O)O)cc3)nc2n(CCC)c1=O,inconclusive: -7.69%,
C[C@]12CCC(=O)C=C1CC[C@@H]1[C@@H]2C(=O)C[C@@]2(C)[C@H]1CC[C@]2(O)C(=O)CO,inactive: 19.7%,
CCCCOC(=O)NS(=O)(=O)c1sc(CC(C)C)cc1-c1ccc(Cn2c(CC)nc3c(C)cc(C)nc32)cc1,,"inconclusive [inhibitor, partial curve, poor fit]"
C[C@]1(C2CCCC2)Cc2cc(OCC(=O)O)c(Cl)c(Cl)c2C1=O,inconclusive: -43.4%,
C[C@]12CC[C@@H]3c4ccc(O)cc4CC[C@H]3[C@@H]1CCC2=O,,"inconclusive [inhibitor, partial curve, poor fit]"
COc1ccc(C(=O)NCc2cccnc2)cc1C(=O)NCc1cccnc1,inconclusive: 8.91%,
C[C@H](O)C(=O)C1=Nc2c(nc(N)[nH]c2=O)NC1,inconclusive: -11.9%,
CC(C)NNC(=O)c1ccncc1,inconclusive: -2.89%,
NC(N)=NCCCCN=C(N)N,inactive: -1.06%,
C[N+](C)(C)CCOC(N)=O,inconclusive: -28.7%,
CCCCCCC/C=C\CCCCCCCCC(=O)O,inconclusive: -16.9%,
